Measurements reported in publication PMC7262672.

Biological target: T1, E. coli cysteine desulfurase IscS (Escherichia coli), P0A6B7
T1 chain: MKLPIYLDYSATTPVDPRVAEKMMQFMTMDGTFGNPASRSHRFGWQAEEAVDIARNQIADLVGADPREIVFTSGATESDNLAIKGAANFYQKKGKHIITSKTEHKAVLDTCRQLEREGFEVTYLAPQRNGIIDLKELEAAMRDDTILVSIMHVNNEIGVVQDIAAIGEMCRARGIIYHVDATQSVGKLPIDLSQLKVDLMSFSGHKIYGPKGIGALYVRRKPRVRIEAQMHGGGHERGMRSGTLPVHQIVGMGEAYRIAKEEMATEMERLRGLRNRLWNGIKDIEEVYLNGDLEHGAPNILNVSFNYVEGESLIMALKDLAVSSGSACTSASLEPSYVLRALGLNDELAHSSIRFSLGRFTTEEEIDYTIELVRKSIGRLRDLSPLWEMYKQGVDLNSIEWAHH
Test: native MS
Details: remark: other sources report otherwise

B1: E. coli cysteine desulfurase IscS, P0A6B7 1-404 (enzyme)
chain: MKLPIYLDYSATTPVDPRVAEKMMQFMTMDGTFGNPASRSHRFGWQAEEAVDIARNQIADLVGADPREIVFTSGATESDNLAIKGAANFYQKKGKHIITSKTEHKAVLDTCRQLEREGFEVTYLAPQRNGIIDLKELEAAMRDDTILVSIMHVNNEIGVVQDIAAIGEMCRARGIIYHVDATQSVGKLPIDLSQLKVDLMSFSGHKIYGPKGIGALYVRRKPRVRIEAQMHGGGHERGMRSGTLPVHQIVGMGEAYRIAKEEMATEMERLRGLRNRLWNGIKDIEEVYLNGDLEHGAPNILNVSFNYVEGESLIMALKDLAVSSGSACTSASLEPSYVLRALGLNDELAHSSIRFSLGRFTTEEEIDYTIELVRKSIGRLRDLSPLWEMYKQGVDLNSIEWAHH
modifications: here or on the partner: PLP (5'-pyridoxal phosphate) cofactor; PLP (5'-pyridoxal phosphate) cofactor
Work on B1 yielded a stoichiometry N of 2.
